# Source: the supplement of paper PMC3724861
# This is one part of the list.
# System: T1, Caupolican (Caup) homeodomain DNA-binding domain
# T1 sequence: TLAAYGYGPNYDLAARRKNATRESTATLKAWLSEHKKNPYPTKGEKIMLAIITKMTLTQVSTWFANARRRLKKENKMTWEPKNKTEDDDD
# Experiment: PBM E-score (8-mer, recovered from the published 9-mer minima) (E-score (dimensionless, -0.5 to 0.5)); Drosophila protein; higher = stronger relative binding preference, active = 0.31 or more
# Method in brief: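 Caup's homeodomain DNA-binding domain (residues 214-303) was produced by in vitro transcription and translation and applied at 100 nM to custom-designed protein binding microarrays. Each value is an enrichment score giving relative binding preference for a short DNA word; higher means stronger. Published 9-mer scores were the minimum of their two constituent 8-mer scores, and the 8-mer values were recovered from those minima. A cutoff of 0.31 marks candidate binding sequences.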
row,Sequence,PBM E-score
1,CCACGCAA,inactive: -0.0519
2,GAAGAGCA,inactive: -0.0634
3,ACGCGCAC,inactive: -0.0925
4,CAAACTTG,inactive: -0.0037
5,CAATGCTC,inactive: -0.00508
6,ATTGTAAG,inactive: 0.0993
7,AATGCCGC,inactive: -0.139
8,CGGCACCG,inactive: -0.175
9,GAACAACC,inactive: 0.265
10,CACGACTC,inactive: 0.0628
11,TAGCTAGA,inactive: -0.0197
12,AAGTACGG,inactive: 0.0736
13,AACCCGGG,inactive: -0.179
14,GAGGGTGA,inactive: -0.152
15,AAGTCCCC,inactive: -0.175
16,CATAGTAG,inactive: 0.15
17,CTATGAGC,inactive: -0.0183
18,CTTATAGC,≥ 0.0708
19,CATCCAAC,inactive: 0.123
20,AGGTACCC,inactive: -0.141
21,ATATCATA,inactive: 0.238
22,ATATGCGC,inactive: 0.106
23,GACGTTGC,inactive: -0.105
24,ATGAGGCA,inactive: -0.119
25,GGCCGTGA,inactive: -0.072
26,ATAGGGGA,inactive: -0.137

row,Sequence,PBM E-score
1,GCAGTCGC,inactive: -0.226
2,AGTATGAA,inactive: 0.131
3,AGTTTGAG,inactive: -0.0429
4,AGCCAGTC,inactive: -0.0838
5,CCGTGGGC,inactive: -0.294
6,AGAAGCGG,inactive: -0.223
7,ACTAAGCT,inactive: -0.117
8,CACCACCG,inactive: -0.148
9,AGACTGCC,inactive: -0.111
10,ACTCGGAC,inactive: -0.00105
11,ATGACGAA,inactive: 0.132
12,CTACCAGC,inactive: 0.0565
13,ACTACAGG,inactive: 0.199
14,CAGAGGGC,inactive: -0.209
15,TCGAGAGA,inactive: -0.0866
16,GCACGACA,inactive: 0.198
17,GTGATTAA,inactive: 0.15
18,GATTCTAC,inactive: 0.0914
19,ACGGAATC,inactive: 0.0546
20,AAAAGTCG,inactive: -0.0817
21,GCGGTTCC,inactive: -0.102
22,AAACGCGT,≥ 0.0308
23,AACTCCAT,inactive: -0.0233
24,CGGCCGCA,inactive: -0.181
25,AAACCAGT,inactive: 0.0724
26,CAATCTCA,inactive: 0.102

row,Sequence,PBM E-score
1,CGAACTCA,inactive: -0.0882
2,ATACTCCA,≥ 0.113
3,CCCGGTTA,inactive: -0.155
4,ACCCTGTG,inactive: 0.0385
5,GCAGCCAC,inactive: -0.22
6,CGATCGTA,≥ 0.11
7,AAGAATGG,inactive: -0.0161
8,CTGCCCTA,inactive: -0.163
9,TAGGAGCA,inactive: 0.0236
10,AATATTTC,inactive: 0.0671
11,AGTTTGCG,inactive: -0.0264
12,CTAAGCCC,inactive: -0.193
13,GATGTCGA,inactive: 0.217
14,CGAGGGAC,inactive: -0.152
15,CTACCTAG,inactive: -0.0794
16,AAGGTAAT,≥ 0.125
17,AACTGGCG,inactive: -0.129
18,ACAAAATG,inactive: 0.252
19,GGTAGCGA,inactive: -0.0452
20,CTCGTTCC,inactive: -0.0488
21,CTACAAGC,inactive: 0.29
22,CTAAGGTC,inactive: -0.129
23,GGACGAGA,inactive: -0.121
24,CATGGGCG,inactive: -0.0923
25,TCCTATCA,inactive: 0.0638
26,ATTCTATA,inactive: 0.148

row,Sequence,PBM E-score
1,ATACGCTG,inactive: -0.0697
2,ATGTCATG,active: 0.353
3,TATACACA,inactive: 0.289
4,GCAAGCAC,inactive: -0.0767
5,AAGAACTC,inactive: 0.00538
6,GCCTGAGA,inactive: -0.145
7,CAGTTAGA,inactive: -0.0838
8,ATTCGTAA,inactive: 0.104
9,ATCATGTA,active: ≥ 0.435
10,GATACCGC,inactive: -0.0341
11,CGTCACAA,inactive: 0.089
12,CGAGACCA,inactive: 0.0466
13,AGCGGGAA,inactive: -0.0954
14,CCCCTCTC,inactive: -0.3
15,ATGATCGC,inactive: 0.0374
16,CTTCCTCA,inactive: -0.122
17,AATTGATA,inactive: 0.11
18,ATGACACA,inactive: 0.259
19,CAGTGGAA,inactive: -0.116
20,CCGCATCA,inactive: -0.06
21,GTTACGCA,inactive: -0.0688
22,CAGTACCA,inactive: 0.0789
23,AGATCCTG,inactive: -0.045
24,CCAGAGCA,inactive: 0.007
25,GATTAGGC,inactive: 0.0729
26,ACGATTAC,inactive: 0.192

row,Sequence,PBM E-score
1,CATGGCCA,inactive: -0.0519
2,AATTGACG,inactive: 0.004
3,CGGATACA,inactive: 0.211
4,CCTTAACC,inactive: -0.0723
5,CGGCGAAC,inactive: -0.137
6,TGATGCCA,inactive: 0.00666
7,CGGTTGTA,inactive: 0.209
8,ATTCAAAA,inactive: 0.0259
9,AAAATAAA,inactive: 0.0878
10,CGGTCGAC,inactive: -0.153
11,GTGTGCGA,inactive: -0.105
12,GTTGAGGA,inactive: -0.0534
13,ATCGAGTA,inactive: 0.0622
14,AGTTATGA,inactive: 0.0971
15,TCCACTCA,inactive: 0.0429
16,CTTTGTGC,inactive: 0.0421
17,ATACCCTC,inactive: -0.0894
18,CCGCATTA,inactive: 0.0385
19,AACGGACG,inactive: -0.055
20,CGCGGCGA,≥ -0.0924
21,AGCCGGGA,≥ -0.141
22,ACGGTTCT,≥ 0.0266
23,ATGTCAGC,inactive: 0.289
24,ATGTTCTC,inactive: 0.281
25,CTACTTTC,inactive: 0.0564
26,GTTAATTA,inactive: 0.203

row,Sequence,PBM E-score
1,CTTTAACA,inactive: 0.158
2,AGAGTGAT,inactive: 0.123
3,GAAACGTC,inactive: -0.039
4,CTATTAGA,inactive: 0.059
5,ATGGTCTA,inactive: 0.0474
6,CCAATAGG,inactive: 0.00699
7,TCTGAACA,inactive: 0.242
8,ATACAGAT,≥ 0.222
9,CTACGAAC,inactive: 0.113
10,CCGGCCCA,inactive: -0.219
11,AAGTTACC,inactive: 0.148
12,GTGCCAAA,inactive: -0.0529
13,CCCGATAC,inactive: -0.088
14,AAATATCA,inactive: 0.134
15,AAGGGTTG,inactive: 0.0698
16,CTCGCATA,inactive: -0.0565
17,ACTAGTCA,inactive: 0.162
18,AAACTGTC,inactive: 0.0873
19,CTTGTTAA,active: 0.327
20,AACTGCCT,≥ 0.0161
21,CGTACGAA,inactive: 0.0215
22,ATCCCCTC,inactive: -0.135
23,AAACTGCT,inactive: -0.0162
24,GAAGAAGA,inactive: 0.015
25,GAGATGTA,active: 0.329
26,CTGCTGTA,inactive: 0.0946

row,Sequence,PBM E-score
1,CCTGCTTA,inactive: -0.0545
2,CGGGGTGC,inactive: -0.216
3,CTACGGTA,inactive: 0.0475
4,TCGTCAAA,inactive: 0.0757
5,CCCGTTAC,inactive: 0.0202
6,AAACACAG,inactive: 0.273
7,AGCGAAGA,inactive: -0.102
8,AAGCTCCG,inactive: -0.123
9,ACTAATAG,inactive: 0.134
10,ATGGCGAC,inactive: -0.0851
11,GTACTGTA,inactive: 0.193
12,TCGGTCCA,inactive: -0.0904
13,GATTTTCC,inactive: -0.0697
14,AAACTGAC,inactive: 0.0172
15,CTCTTCAA,inactive: -0.113
16,ACGAACTA,≥ 0.147
17,AACGATTC,inactive: 0.0478
18,ACTTTCGG,inactive: -0.0323
19,CAAGTCGG,inactive: 0.00372
20,CTACACAG,inactive: 0.235
21,GTAGGCAC,inactive: -0.096
22,CCGGAAAA,inactive: -0.0151
23,AGAATTGG,inactive: 0.0648
24,CGATATAA,inactive: 0.116
25,CCATCCGG,inactive: -0.16
26,ACCAATGC,inactive: -0.0832

row,Sequence,PBM E-score
1,ACTTCAAA,inactive: 0.0409
2,ACCCTTCG,inactive: -0.152
3,CAAAGTAA,inactive: 0.0946
4,AATTTGGA,inactive: 0.0747
5,AAGGGCTC,inactive: -0.179
6,AATTGTTG,inactive: 0.199
7,CGATGCCA,inactive: -0.0826
8,CACTCATA,inactive: 0.0823
9,ACAGATTG,inactive: 0.0908
10,GATAAAGA,inactive: 0.0509
11,CAAACCGC,inactive: -0.193
12,ACGCGCAA,inactive: -0.00735
13,GTGACTCA,inactive: -0.0435
14,GCAGTCAC,inactive: -0.0418
15,ACCACCTG,inactive: -0.031
16,ACCAGGGA,inactive: -0.049
17,CCGGGGAG,inactive: -0.223
18,ACTAGAAT,inactive: 0.138
19,AACTATGT,inactive: 0.273
20,AATCAAGT,inactive: 0.0906
21,ACACGACG,inactive: 0.246
22,ATGTAAGA,active: 0.332
23,ATTTGTCA,≥ 0.248
24,ACTTCCAA,inactive: -0.0392
25,ATGCACAT,inactive: 0.22
26,CCGTAACA,inactive: 0.226

row,Sequence,PBM E-score
1,CGGCTGGC,inactive: -0.271
2,AGTACAGG,≥ 0.234
3,GCGAAAGC,inactive: -0.183
4,ATAATGTC,inactive: 0.233
5,AGCATTTG,inactive: 0.0686
6,AAAGAAGG,inactive: -0.102
7,AAAATTTA,inactive: 0.0739
8,GCATCAAC,inactive: 0.0266
9,CCTGTAAG,inactive: 0.127
10,ACTTCCCA,inactive: 0.0176
11,ACGCCCGA,inactive: -0.121
12,CGAAAAAG,inactive: -0.0656
13,ACTGGCGG,inactive: -0.109
14,GTAAGTCA,inactive: 0.0871
15,CGGCCGAC,inactive: -0.163
16,ACAGAGAA,≥ 0.12
17,CTAGGTGC,inactive: -0.162
18,TATTGAGA,≥ 0.0995
19,ACCGGCGG,inactive: -0.229
